This note sets out measurements from the supplement of paper PMC11417369.

This is one part of the list.

In this assay the test system is PfSIP2 AP2 domain 1 (GST-tagged). As to the kind of experiment: gcPBM binding intensity (ln(normalized median fluorescence intensity)); higher = stronger DNA binding. An outline of the steps: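 Using an Agilent 4 × 180k array, primer-extended double-stranded 36-bp intergenic genomic probes and negative controls were exposed for 1 h to GST-fused P. falciparum DNA-binding domains expressed in E. coli. Binding was carried out in 1× PBS with 1% milk, 0.2 mg/ml BSA, 0.5% salmon testes DNA and 0.03% Triton X-100, and protein was detected with Alexa488 anti-GST antibody and a 488 nm scan. Binding intensity is the highest Masliner-normalised natural-log median intensity across replicate spots of either probe orientation.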
As to “TTTTTTTTTGAAAAAAGTACTTAATTTTTAAGAAGA [XGTACX_site3591]”, the “gcPBM binding intensity (ln)” value was found to be 6.97.
The value for “TCTAATAATAAATACACACACATATATATTTATATA [CACACA_site5169]” was 6.93; that for “GTCAACAAGAATTAAGTGCATAATTTTTTATTAAAT [GTGCAC_site9492]” was 8.61.
For “AGTAATAATCGGCATGCATGTCAGTGGTAGTATATA [TGCATGCA_site312]” the value was 7.08; for “ATGTCAAGAACTGAACGTACAAACTTTGTAATATTG [XGTACX_site8754]”, 7.16.
For “ATACAGATAGGATGCACACATAATTCAAATACAATA [CACACA_site4531]” the value was 7.62; for “ATATAATAATAATATTGTACAATAAAAAATATATAT [XGTACX_site7350]”, 7.21; for “AAATTTTATGTATAATGTACACATAAATTTTTCTTT [XGTACX_site7266]”, 7.06.
As to “TTAAGTAGTACATACACACACATATACAAAAAGAAA [CACACA_site3972]”, the “gcPBM binding intensity (ln)” value was 7.3.
For “TACTTTTTTCCTATTATGTTTCTTATTTTTATAAAT [XGTACX_negctrl_site561]” the value was 7.47; for “TATTATTTTTCATATGCATGCAAAAATAAAAAAATA [TGCATGCA_site350]”, 7.05.
For “TATAAAAAAAAAAAAAAAAAAAAAAATATATATATA [CACACA_negctrl_site817]” the value was 8.89.
Turning to “ATGAAAAAAAAAAAAAAAAAAAAAAAAAAAAAAATA [CACACA_negctrl_site1083]”, the “gcPBM binding intensity (ln)” value is 6.83.
With “ATTTTTTTGTATATATATGACTGGGGATATAATCAA [GTGCAC_negctrl_site274]”, the “gcPBM binding intensity (ln)” value is 7.04.
“AAAAAAAAAAAAAATTGTACTTAAATATATATATAT [XGTACX_site7604]”: the “gcPBM binding intensity (ln)” value stood at 9.07.
For “AAATTAAAATAAAATAGTACATATATTTATATTTTT [XGTACX_site1687]” the value was 6.79.
For “ACATACATATATTTATGTACATATATATTTATGATT [XGTACX_site6485]” the value was 7.11; for “TTTTGGTGTATAGTATTAATATAAAATAATTATATT [CACACA_negctrl_site47]”, 7.15; for “AAAAAAAGATTATACACACACATATATAAACATACA [CACACA_site4553]”, 7.1.
The value for “AATTTATATTTATGTGCATGTAATAACTGTATATAA [TGCATGCA_site349]” was 7.55.
For “TTAGCTTATCATTACTGTACTTTATTCATATATATG [XGTACX_site8008]”, the “gcPBM binding intensity (ln)” value amounted to 7.02.
“TAAACATTCTTATATAGTACCCATATTAAAATATAC [XGTACX_site8014]”: the “gcPBM binding intensity (ln)” value is 6.93.
For “ATTTTTTTTTCTTGTACACACTATTTTATAATTTTA [CACACA_site6102]” the value was 7.38; for “TACATATATATATATGAACACACAAAAAGAATATTT [CACACA_site8421]”, 7.21.
The value for “ATAAGCATACATATTACACACATATAATATATATAT [CACACA_site2487]” was 8.7.
The value for “TCTTACTAATTTATGGGGACTTATCACCTATTCAGT [CACACA_negctrl_site652]” was 6.81; that for “AGTGGATAAATTTATTCACACATTTTTTTTTTTTTT [CACACA_site5914]” was 6.97.
Consider “TTTTATGAGAAACACACACACAAAAAAAAAAAAAAA [CACACA_site4129]”, for which the “gcPBM binding intensity (ln)” value amounted to 7.12.
The value for “CATGAATCCTAATAATGTACATAAGAATTCATAATG [XGTACX_site1607]” was 6.84; that for “TCAATAATAAAAAACACACACAAAAAAAAATAATTA [CACACA_site2798]” was 6.8; that for “AACAAAGTCATACATACATACATATATATATATATA [GTGCAC_negctrl_site632]” was 9.34.
Consider “TATATTATTTATAGTAGTACATAAAATATAAATATT [XGTACX_site4417]”, for which the “gcPBM binding intensity (ln)” value turned out to be 6.98.
In the case of “AAAAAAAAAAAAAAAACACACATACACATATATTTT [CACACA_site7768]”, the “gcPBM binding intensity (ln)” value came out at 7.83.
The value for “TATTGTATTTCATATTGTACTAAAAAAAAAAAAAAG [XGTACX_site6694]” was 7.09; that for “ATAATACATACATACATACACACATATATATATATT [CACACA_site3576]” was 7.46.
For “TAAAAAAAAAAAAAAACACACATATAAATATTTATA [CACACA_site6702]” the value was 6.86; for “TGAATAAAGAAACACACACACATATATATATATGTA [CACACA_site17]”, 7.01.
The value for “TATTAATAATTTTCATGTACATATGTATTTGTAATA [XGTACX_site858]” was 6.97.
Turning to “ATATAATAAATGTCATGTACATACAACATTTTAACT [XGTACX_site7517]”, the “gcPBM binding intensity (ln)” value was 7.08.
The value for “TTTTTAATTTACTGTCATAGGTACCTTAACTTATCA [CACACA_negctrl_site1664]” was 6.85.
For “TACTTATGTTCGCACACATGCAAATTAAAAAAAAAA [TGCATGCA_site1023]” the value was 7.71.
For the sequence “TACATATACATATTGTGTACATAATAATTATTTATA [XGTACX_site7884]”, the “gcPBM binding intensity (ln)” value is 7.58.
The value for “TTAATTAAGAAACACACACACATATATATATATATT [CACACA_site2290]” was 7.18; that for “TCTCTTTTTCGTTCATGTACAAATAAATAAAAATAT [XGTACX_site6558]” was 7.35.
